According to the supplement of paper PMC9446081:
In all, about 39,000 compounds went through this assay and about 220 (0.56%) showed activity. The list shows a part of the results.

tested on: Escherichia coli K-12 BW25113; assay: relative growth (OD600 normalised to plate interquartile mean) (fraction); higher = less growth inhibition, active = 0.2 or less; details: 50 µM; LB; incubation time: overnight (16-24 h)
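Also: static incubation at 37 °C against the wild-type strain, values averaged over two biological replicates.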

Structure (SMILES)	relative growth
O=C1O[C@@H](c2ccccc2)[C@@H](c2ccccc2)N2[C@@H](c3ccc(O)cc3)[C@]3(C(=O)Nc4ccc(C#CC5=CCCCC5)cc43)[C@@H](C(=O)N3CCCCCCC3)[C@H]12	inactive: 0.989
C[C@@H]1CN([C@H](C)CO)C(=O)c2cc(NS(=O)(=O)c3ccc(Cl)cc3)ccc2O[C@@H](C)CCCCO[C@@H]1CN(C)C(=O)c1ccncc1	inactive: 1
C[C@@H]1CN([C@@H](C)CO)C(=O)c2cc(NC(=O)c3ccccc3)ccc2O[C@@H](C)CCCCO[C@@H]1CN(C)C(=O)CCC(F)(F)F	inactive: 0.997
Cn1cnc(S(=O)(=O)N[C@H]2CC[C@H](CC(=O)N3CCN(c4ccccc4)CC3)O[C@H]2CO)c1	inactive: 0.991
C[C@@H]1CN([C@H](C)CO)C(=O)c2cccc(NS(=O)(=O)c3ccc(F)cc3)c2O[C@@H]1CN(C)Cc1ccncc1	inactive: 0.964
C[C@@H]1CCCCO[C@@H](CN(C)S(=O)(=O)c2ccccc2)[C@@H](C)CN([C@@H](C)CO)C(=O)c2cc(NC(=O)Nc3ccc(F)cc3)ccc2O1	inactive: 1.02
C[C@H](CO)N1C[C@H](C)[C@@H](CN(C)C(=O)Nc2ccc(F)cc2)OCCCC[C@H](C)Oc2ccc(NC(=O)CCC(F)(F)F)cc2C1=O	inactive: 0.997
C[C@H]1CN([C@@H](C)CO)C(=O)Cc2cc(NS(=O)(=O)c3ccc(Cl)cc3)ccc2O[C@H]1CN(C)Cc1ccc(Cl)c(Cl)c1	inactive: 1
CCCCCc1c2c(cc(O)c1C(=O)O)OC(=O)c1c(cc(OC)cc1C(=O)CCCC)O2	inactive: 0.697
COc1ccc(S(=O)(=O)N[C@@H]2CC[C@@H](CC(=O)N3CCC(Cc4ccccc4)CC3)O[C@@H]2CO)cc1	inactive: 0.979
COc1ccc(NC(=O)N(C)C[C@H]2Oc3cc(C#CCN(C)C)ccc3S(=O)(=O)N([C@H](C)CO)C[C@@H]2C)cc1	inactive: 1
Clc1ccc(CCC(Cn2ccnc2)Sc2c(Cl)cccc2Cl)cc1 (stereo unspecified)	inactive: 0.883
COc1ccccc1S(=O)(=O)N(C)C[C@@H]1OCc2cn(nn2)CCCC(=O)N([C@H](C)CO)C[C@@H]1C	inactive: 0.988
Cc1nc(=O)[nH]c(C(=O)O)c1C	inactive: 0.988
C[C@H]1CN([C@@H](C)CO)C(=O)c2cc(NS(=O)(=O)c3ccc(F)cc3)ccc2O[C@H]1CN(C)S(=O)(=O)c1cccs1	inactive: 0.987
C[C@H](CO)N1C[C@H](C)[C@@H](CN(C)Cc2ccc3c(c2)OCO3)Oc2c(NC(=O)Nc3ccc(C(F)(F)F)cc3)cccc2C1=O	inactive: 0.894
Cc1ccc(S(=O)(=O)Nc2ccc3c(c2)C(=O)N([C@@H](C)CO)C[C@@H](C)[C@@H](CN(C)Cc2ccncc2)OCCCC[C@H](C)O3)cc1	inactive: 0.998
CC(C)NC(=O)Nc1ccc2c(c1)C(=O)N([C@@H](C)CO)C[C@H](C)[C@H](CN(C)C(=O)C1CCCCC1)OCCCC[C@@H](C)O2	inactive: 1.02
C[C@@H]1CN([C@@H](C)CO)C(=O)c2cc(NS(C)(=O)=O)ccc2O[C@@H]1CN(C)S(=O)(=O)c1cn(C)cn1	inactive: 1.01
C[C@@H]1CN([C@@H](C)CO)C(=O)Cc2cc(NC(=O)Cc3cn(C)c4ccccc34)ccc2O[C@@H]1CN(C)CC1CCCCC1	inactive: 0.979
Cn1cccc1C(=O)N[C@H]1CN(S(C)(=O)=O)[C@H]2CCCO[C@@H]12	inactive: 0.983

Structure (SMILES)	relative growth
COc1ccc(NC(=O)Nc2cccc3c2O[C@@H](CN(C)CC2CCCCC2)[C@H](C)CN([C@@H](C)CO)C3=O)cc1	inactive: 1
C[C@@H]1CN([C@@H](C)CO)C(=O)c2cc(NS(=O)(=O)c3cccs3)ccc2O[C@@H](C)CCCCO[C@H]1CN(C)C(=O)Cc1ccccc1	inactive: 0.991
O=C(C[C@H]1CC[C@H]2[C@@H](COC[C@H](O)CN2S(=O)(=O)c2ccccc2)O1)NCc1ccc(-c2ccccc2)cc1	inactive: 1.01
COC(=O)N/N=C/c1c[n+]([O-])c2ccccc2[n+]1[O-]	active: 0.0462
C[C@H](CO)N1C[C@H](C)[C@@H](CN(C)C(=O)C2CCCCC2)OCCCC[C@H](C)Oc2ccc(NC(=O)CCC(F)(F)F)cc2C1=O	inactive: 1.02
C[C@@H]1CN([C@H](C)CO)C(=O)c2cc(NS(=O)(=O)c3ccc(Cl)cc3)ccc2O[C@@H](C)CCCCO[C@@H]1CN(C)S(=O)(=O)c1ccc(Cl)cc1	inactive: 1.02
C[C@H](CO)N1C[C@H](C)[C@@H](CN(C)S(=O)(=O)c2ccc(-c3ccccc3)cc2)OCc2cnnn2CCCC1=O	inactive: 1.02
C[C@H](CO)N1C[C@H](C)[C@H](CN(C)Cc2ccc(C(F)(F)F)cc2)Oc2ccc(NC(=O)Cc3ccccc3)cc2C1=O	inactive: 1.03
Cc1ccc(-c2cnc(-c3ccc(Br)cc3)o2)cc1	inactive: 0.991
CCCCCCCCCCCCCCCCCCOCC(O)CO (stereo unspecified)	inactive: 1.01
C[C@@H]1CN([C@@H](C)CO)C(=O)c2cc(NS(=O)(=O)c3ccc(F)cc3)ccc2O[C@@H]1CN(C)S(=O)(=O)c1cn(C)cn1	inactive: 0.983
Cc1ccc(S(=O)(=O)Nc2ccc3c(c2)C(=O)N([C@H](C)CO)C[C@@H](C)[C@H](CN(C)Cc2ccc(C(=O)O)cc2)OCCCC[C@@H](C)O3)cc1	inactive: 0.987
C[C@H](CO)N1C[C@H](C)[C@H](CN(C)C(=O)C2CCCCC2)OCCCC[C@H](C)Oc2ccc(NC(=O)Nc3ccccc3)cc2C1=O	inactive: 0.958
C[C@H](CO)N1C[C@H](C)[C@@H](CN(C)S(=O)(=O)c2cccs2)Oc2ccc(NC(=O)C3CC3)cc2C1=O	inactive: 0.992
Cc1noc(C)c1S(=O)(=O)Nc1ccc2c(c1)C(=O)N([C@@H](C)CO)C[C@@H](C)[C@H](CN(C)S(=O)(=O)c1cn(C)cn1)O2	inactive: 0.992
C[C@@H]1CCCCO[C@H](CN(C)S(=O)(=O)c2cccs2)[C@H](C)CN([C@@H](C)CO)C(=O)c2cc(NC(=O)Nc3ccccc3)ccc2O1	inactive: 1.01
C[C@@H]1CN([C@H](C)CO)C(=O)c2cccc(NC(=O)C3CCOCC3)c2O[C@H]1CN(C)C(=O)Nc1ccccc1	inactive: 1.01
OC[C@@H](O)[C@@H](O)[C@@H](O)/C=N/Nc1ccccc1	inactive: 1.03
COc1ccc(S(=O)(=O)N(C)C[C@H]2Oc3ccc(NS(=O)(=O)c4ccc(C)cc4)cc3C(=O)N([C@H](C)CO)C[C@@H]2C)cc1	inactive: 1.03
C[C@@H]1CN([C@@H](C)CO)S(=O)(=O)c2ccc(C3=CCCCC3)cc2O[C@H]1CN(C)C(=O)C1CCOCC1	inactive: 1.02
O=C(CCCCCNC(=O)OCCCCO[C@H]1C[C@H]2C(I)=C[C@@H]1C(=O)[C@]21CCCO1)NO	inactive: 1.03

Structure (SMILES)	relative growth
COc1ccccc1/C=C/C=C1/C(=O)N(c2cc(C)cc(C)c2)[C@@H](c2cccc([N+](=O)[O-])c2)S1(=O)=O	inactive: 1.03
C[C@H]1CN([C@@H](C)CO)C(=O)c2cc(C#Cc3ccccn3)cnc2O[C@H]1CN(C)C(=O)CCN1CCCCC1	inactive: 0.999
NC(=O)CCC(N)C(=O)O (stereo unspecified)	inactive: 0.953
Cc1nonc1CO	inactive: 0.961
C[C@@H]1CN([C@@H](C)CO)C(=O)c2cc(NS(=O)(=O)c3ccccc3)ccc2O[C@@H](C)CCCCO[C@@H]1CN(C)Cc1ccc(C(F)(F)F)cc1	inactive: 1.06
CCNc1nc2nonc2nc1NCC	inactive: 0.943
N[C@@H]1CCCN(c2c(/C=C3\SC(=O)NC3=O)cccc2-c2ccccc2)C1	inactive: 0.998
CC(C)NC(=O)N(C)C[C@H]1OCc2cn(nn2)CCCC(=O)N([C@@H](C)CO)C[C@@H]1C	inactive: 0.983
C[C@H]1CN([C@@H](C)CO)C(=O)Cc2cc(NC(=O)c3ccncc3)ccc2O[C@@H]1CN(C)S(=O)(=O)c1cccs1	inactive: 0.978
NCCc1nc(-c2ccccc2)cs1	inactive: 0.904
CCN1CCN(C(=O)N[C@@H](C(=O)N[C@@H]2C(=O)N3[C@@H]2SC(C)(C)[C@@H]3C(=O)O)c2ccccc2)C(=O)C1=O	inactive: 0.606
CCCNC(=O)C[C@H]1CC[C@@H]2[C@H](COc3ccc(NC(=O)c4ccc5c(c4)OCO5)cc3C(=O)N2C)O1	inactive: 1
C[C@H](CO)N1C[C@H](C)[C@@H](CN(C)C(=O)Nc2ccnc(N3CCOCC3)c2)OCc2cnnn2CCCC1=O	inactive: 0.982
CC(C)NC(=O)N(C)C[C@H]1Oc2ccc(NC(=O)Nc3ccc4c(c3)OCO4)cc2CC(=O)N([C@@H](C)CO)C[C@H]1C	inactive: 0.986
COC(=O)[C@H](Cc1ccccc1)N1CC2=C[C@@H]([C@@H](O)CCn3cc(CCC(=O)NO)nn3)n3c(=O)n(C)c(=O)n3[C@@H]2[C@@H](C2CC2)O1	inactive: 1.01
C[C@@H]1CN([C@H](C)CO)C(=O)c2cc(NS(=O)(=O)c3ccccc3)ccc2O[C@H]1CN(C)Cc1ccncc1	inactive: 0.988
COc1ccc(NC(=O)Nc2ccc3c(c2)C(=O)N([C@H](C)CO)C[C@H](C)[C@H](CN(C)S(=O)(=O)c2ccccc2)OCCCC[C@H](C)O3)cc1	inactive: 0.995
Cc1noc(C)c1S(=O)(=O)Nc1ccc2c(c1)C(=O)N([C@H](C)CO)C[C@H](C)[C@@H](CN(C)Cc1ccc(Cl)c(Cl)c1)OCCCC[C@H](C)O2	inactive: 1
C[C@@H]1CN([C@@H](C)CO)C(=O)c2cc(-c3cncnc3)cnc2O[C@@H]1CN(C)C(=O)Nc1ccc2c(c1)OCO2	inactive: 0.995
